Test results: the RNAGym collection of RNA variant scans (doi:10.7554/elife.90254)
The source gives no read counts; variants with many changes may rest on few reads.

B1: LINE1-mini (parent)
chain: GGCAGAGCUCAACACAGCGUGGCAAAGUGGCUGUGGCUAGACUGCC

Variants of: B1
Experiment: self-cleavage, relative activity (ratio to wild type); higher = more cleavage; in vitro, sequencing; the parent is a self-cleaving ribozyme
For UGCAGAGCUCAACACAGAGUGGCAAAGUGGCUGCGGCUAGACUGCC, the self-cleavage was 0.06. For UGCAGAGCUCAACACAGAGUGGCAAAGUGGCUGGUGCUAGACUGCC, the self-cleavage was 0.02. UGCAGAGCUCAACACAGGAUGGCAAAGUGGCUGUGGCUAGACUGCC gave a self-cleavage of 0.04. With UGCAGAGCUCAACACAGGGUUGAAAAGUGGCUGUGGCUAGACUGCC the self-cleavage was 0.27. In the case of UGCAGAGCUCAACACAGGGUGGCAAACUGGCUGUGGCCAGACUGCC, the self-cleavage is reported as 0.02. For UGCAGAGCUCAACACAGGGUGGCAAAGUGGCUGUAGCUAGACUGCC, the self-cleavage was 0.01. UGCAGAGCUCAACACAGUGUGGCAAAGUGGCUGUGGCUAGACUGCA gave a self-cleavage of 0.6. With UGCAGAGCUCAACACAGUGUGGCAAAGUGCUUGUGGCUCGACUGCC the self-cleavage was 0.03. In the case of UGCAGAGCUCAACACAGUGUGGCAAAGUGGCUGGGGCUAGACUGCC, the self-cleavage is reported as 0.03. For UGCAGAGCUCAACACAGCGUGGAAUAGUGGCUGUGGCUAGACUGCC, the self-cleavage was 0.15. UGCAGAGCUCAACACAGCGUGGAAAAGUGGCUGUAGCUAGAAUGCC gave a self-cleavage of 0.04. Work on UGCAGAGCUCAACACAGCGUGGAAAAGUGGCUGUCGCUAGACUGCC yielded a self-cleavage of 0.1. Work on UGCAGAGCUCAACACAGCGUGGAAAAGUGGCUGUUGCUAGGCUGCC yielded a self-cleavage of 0.25. UGCAGAGCUCAACACAGCGUGGAAAAGUGGCUGUGGCUAGACUUCC showed a self-cleavage of 0.21. In the case of UGCAGAGCUCAACACAGCGUGGGCAAGGGGAUGUGGCUAGACUGCC, the self-cleavage is reported as 0.02. UGCAGAGCUCAACACAGCGUGGGAAAGUGGCUGAGGCUAGAGAGCC gave a self-cleavage of 0.03. UGCAGAGCUCAACACAGCGUGGUAAAGUGGCUGUGGCUCGAUUCCC gave a self-cleavage of 0. For UGCAGAGCUCAACACAGCGUGGUAAAGUGGCUGUGGUUAGACUGCC, the self-cleavage was 0.02. In the case of UGCAGAGCUCAACACAGCGUGGCAAAGUGGAUGUGGAUAGACUGGC, the self-cleavage is reported as 0.02. Work on UGCAGAGCUCAACACAGCGUGGCAAAGUGGAUGUGGCUAGAGUCCC yielded a self-cleavage of 0.03. For UGCAGAGCUCAACACAGCGUGGCAAAGUGGAUGUGGCUAGACUUCC, the self-cleavage was 0.06. In the case of UGCAGAGCUCAACACAGCGUGGCAAAGUGGGUGUGGCUAGAUCGCC, the self-cleavage is reported as 0.04. With UGCAGAGCUCAACACAGCGUGGCAAAGUGGGUGUGGCUAGACUGAC the self-cleavage was 0.04. UGCAGAGCUCAACACAGCGUGGCAAAGUGGGUGUGGCUAGACUGGC gave a self-cleavage of 0.04. UGCAGAGCUCAACACAGCGUGGCAAAGUGGGUGUGGCUAUACUGCC showed a self-cleavage of 0.02. UGCAGAGCUCAACACAGCGUGGCAAAGUGGUUGUGGCUAGGCUGCC showed a self-cleavage of 0.01. UGCAGAGCUCAACACAGCGUGGCAAAGUGGUUGUGGCUAGAAUGCC gave a self-cleavage of 0.01. Work on UGCAGAGCUCAACACAGCGUGGCAAAGUGGCUGUGGAUAGACUGCG yielded a self-cleavage of 0.01. Variant UGCAGAGCUCAACACAGCGUGGCAAAGUGGCUGUGGGUAUACUGCC has a self-cleavage of 0.03. In the case of UGCAGAGCUCAACACAGCGUGGCAAAGUGGCUGUGGUUAGACUCCC, the self-cleavage is reported as 0.06. Variant UGCAGAGCUCAACACAGCGUGGCAAAGUGGCUGUGGCUAGAAUGAC has a self-cleavage of 0.02. In the case of UGCAGAGCUCAACACAGCGUGGCAAAGUGGCUGUGGCUAGAAGGGC, the self-cleavage is reported as 0.02. Work on UACAGAGCUCCACACAGCCUGGCAAAGUGGAUCUGGCUAGACUGCC yielded a self-cleavage of 0.01. In the case of UACAGAGCUCAACGCAGCGUGGUAAAGUGGCUGUGACUAGACUGCC, the self-cleavage is reported as 0.04. Variant UACAGAGCUCAACACAGCGUGGCAACGUGGCUGUGGCUAGGCUGCC has a self-cleavage of 0.03. UAUAGAGCUCAACACAGCAUGGCAAAGUUGCUGUGGCUAGACUGCC gave a self-cleavage of 0.4. UACAGAGCUAAACACAGCGUGGCAAAGUGGCUGUGGCUAAACUGCC gave a self-cleavage of 0. UACAGAGCUCAACAAAGCGUGGCUACGUGGCUGUGGCUAGACUGCC showed a self-cleavage of 0.24. For UACAGAGCUCAACACAGGGUGGCAAAGUGGCUGUGGCUAGACUGCC, the self-cleavage was 0.05. With UACAGAGCUCAACACAGCGUGGAAAAGUGGCUGUGGCUAUACUGCC the self-cleavage was 0.01. With UACAGAGCUCAACACAGCGUGGCAAAGUGGAUGUACCUAGACUGCC the self-cleavage was 0.01. For UACAUAGCUCAGCACAGCGUGGCAAAGUGGCUAUGGCUAGACUGCC, the self-cleavage was 0.01. With UACAUAGCUCAACACAGCGCGUCAAAGUGGCUCUGGCUAGACUGCC the self-cleavage was 0.06. UACAGAACUCAACACAGCGGGGCAAAGUGGCUGUGGCUAGACUGCC showed a self-cleavage of 0.27. Work on UACAGACCUCAACACUGUGUGGCAAAGUGGCUGGGGCUAGACUGCC yielded a self-cleavage of 0.11. In the case of UACAGAGCUCAACACAGCGUUGGAAAGUGGUUGUGGCGAGACUGAC, the self-cleavage is reported as 0.01. Variant UACAGAGCUCAACACAGCGUGCCAAAGCGGCUGUGGCUAGACUUCC has a self-cleavage of 0.13. Work on UACAGAGCACAAAACAGCGUGGCAAAGUGGCUGUGGCUAGACUGAC yielded a self-cleavage of 0.3. Variant UACAGAGCCCAACACAGCGUGGCAAAGUAGCUGUGGCUAGGCUGCC has a self-cleavage of 0.01. Variant UACAGAGCUCAACACAGCGUGGCAAAGUGGCUGAGGCUAGACUGCC has a self-cleavage of 0.02. In the case of UCCGGAGCUCAACACAGCGUGGCAAAGUGGCUGUGGCUAGACUGCC, the self-cleavage is reported as 0.26. For UCCUGAGCUCAACCCAGCGCGGCUAAUUGGCUGUGGCUAGACUGCC, the self-cleavage was 0.03. In the case of UCCAGAGCUCUAAACAGCGUGGCAACGUGGCUGUGGCUAGACUGCU, the self-cleavage is reported as 0. With UCCAGAGCUCAACACAGCGUGGCGAAGUGGAUGUGGCUAGACUGCA the self-cleavage was 0.01. Work on UCGAGAGCUCAAUACAGCGUGGCAAAGUGGCUGUGGCUAGACUGCC yielded a self-cleavage of 0.28. Work on UCCAGAGGUGAACACAGUGUCGCAAAGUGGCUGUGGCUAGCCUUCU yielded a self-cleavage of 0.
